Measured values taken from patent publication US10335372B2, “Compositions with modified nucleases targeted to viral nucleic acids and methods of use for prevention and treatment of viral diseases” (priority 2004, dated 2019).

Test system: dsDNA
Assay: Hydrolysis of dsDNA in human serum by native, multi-charged and actin-resistant DNase I variants
Details: for Time T50 (min) 50% DNA hydrolysis: single values of triplicate
Method: Target dsDNA in phosphate buffer, pH 7.5, at a DNA concentration 5 ng/ml, approximates in vivo peak concentrations of viral DNA within an infected cell. This concentration is orders of magnitude lower than typical concentration of endogenous host DNA in serum (about 25-250 ng/ml; Pan, et al., J. Biol. Chem. 273, No 29: 18374-18381, 1998). Standard assay of DNase activity is based on conversion of acid-insoluble DNA polymer, precipitable by cold 2.25 mol/l perchloric acid, into non-precipitable acid soluble fragments that are 20 bp or less long determined spectrophotometrically at λ=260 nm (Dewez, et al., Eur. J. Clin. Chem. Clin. Biochem. 31, 793-797, 1993). The results performed in triplicate represent time required for 50% solubilization of 5 kbp dsDNA (500 μg/ml) by each of the mc and mc/ar-DNases (+1 to +6) positively charged variants, compared with the 50%-solubilization time of the same 5 kbp dsDNA samples digested by wild-type human DNase I.

Molecule | Average T50 (min) 50% DNA hydrolysis [min] | Time T50 (min) 50% DNA hydrolysis
mc/arDNase (+6): hyperactive/actin-resistant human DNase I, E13R/T14K/H44R/N74K/T205K/A114R (protein, UniProt P24855 23-282, looked up, variant E13R T14K H44R N74K T205K A114R) Deoxyribonuclease-1: LKIAAFNIQTFGRKKMSNATLVSYIVQILSRYDIALVQEVRDSRLTAVGKLLDNLNQDAPDTYHYVVSEPLGRKSYKERYLFVYRPDQVSAVDSYYYDDGCEPCGNDTFNREPRIVRFFSRFTEVREFAIVPLHAAPGDAVAEIDALYDVYLDVQEKWGLEDVMLMGDFNAGCSYVRPSQWSSIRLWTSPTFQWLIPDSADTTAKPTHCAYDRIVVAGMLLRGAVVPDSALPFNFQAAYGLSDQLAQAISDHYPVEVMLK | 1 | –
mcDNase (+3): recombinant human DNase I with substitutions E13R/N74K/T205K (protein, UniProt P24855 23-282, looked up, variant E13R N74K T205K) Deoxyribonuclease-1: LKIAAFNIQTFGRTKMSNATLVSYIVQILSRYDIALVQEVRDSHLTAVGKLLDNLNQDAPDTYHYVVSEPLGRKSYKERYLFVYRPDQVSAVDSYYYDDGCEPCGNDTFNREPAIVRFFSRFTEVREFAIVPLHAAPGDAVAEIDALYDVYLDVQEKWGLEDVMLMGDFNAGCSYVRPSQWSSIRLWTSPTFQWLIPDSADTTAKPTHCAYDRIVVAGMLLRGAVVPDSALPFNFQAAYGLSDQLAQAISDHYPVEVMLK | 11 | 10 min and 11 min and 12 min
mcDNase (+5): recombinant human DNase I with substitutions E13R/T14K/H44R/N74K/T205K (protein, UniProt P24855 23-282, looked up, variant E13R T14K H44R N74K T205K) Deoxyribonuclease-1: LKIAAFNIQTFGRKKMSNATLVSYIVQILSRYDIALVQEVRDSRLTAVGKLLDNLNQDAPDTYHYVVSEPLGRKSYKERYLFVYRPDQVSAVDSYYYDDGCEPCGNDTFNREPAIVRFFSRFTEVREFAIVPLHAAPGDAVAEIDALYDVYLDVQEKWGLEDVMLMGDFNAGCSYVRPSQWSSIRLWTSPTFQWLIPDSADTTAKPTHCAYDRIVVAGMLLRGAVVPDSALPFNFQAAYGLSDQLAQAISDHYPVEVMLK | 6 | 5 min and 6 min and 7 min

Values joined by “and” are separate entries in the source; they are usually repeats but may differ in a detail not shown here. Identical values can stand only once.
